# Paper PMC13083723 (Patterns, 2026)
# Among all 5,400 compounds or so, about 190 (3.5%) showed an effect of 50% or more. The list shows a part of the results. Starred links: 1 amine or outer side, 2 acyl side, 3 side chain; linkers in the order of their positions; H or OH if unused. Positions of bridges follow the written chain, without caps; N, C: chain ends. Residues, ends and D or L forms follow the SMILES beside them. X2 = O=C(CCC[*:2])[*:1]
# Tested on: Vero-E6
# Experiment: primary screen, phospholipidosis by LipidTOX staining; higher = more effect of the substance
# Conditions: 10 µM
# Procedure, shortened: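 Single-concentration screen at 10 μM, with DMSO 0.1 v/v % and amiodarone 10 μM as controls. Read-out is LipidTOX Red phospholipid staining, which tolerates aldehyde fixation, in Vero-E6 cells.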
row,Structure (SMILES),result_ITMP [%]
1,CN(C)C(=O)Nc1cccc(-c2ccc(N(C)C)cc2)c1,-8.09
2,N#Cc1ccc(C(c2ccc(C#N)cc2)n2cncn2)cc1,-0.05
3,CC(=O)NC[C@H]1CN(c2ccc(-c3ccc(CNCc4cnn[nH]4)cc3)c(F)c2)C(=O)O1,-4.98
4,CC(=O)OCC(=O)[C@H]1CC[C@H]2[C@@H]3CC[C@H]4C[C@H](O)CC[C@]4(C)[C@H]3C(=O)C[C@]12C,-8.55
5,O=C(O)Cc1ccc(-c2ccccc2)cc1,-2.18
6,CC(C)N(C[C@H]1O[C@@H](n2cnc3c(N)ncnc32)[C@H](O)[C@@H]1O)C1CC(CCc2nc3cc(C(C)(C)C)ccc3[nH]2)C1 (some centres unmarked),-3.75
7,O=C(O)c1cn(-c2ccc(F)cc2)c2cc(N3CCNCC3)c(F)cc2c1=O,-2.73
8,Fc1ccc2nc(CCC#Cc3ccccn3)cn2c1,-0.93
9,NS(=O)(=O)Nc1ncnc(OCCOc2ncc(Br)cn2)c1-c1ccc(Br)cc1,-0.48
10,C[C@@H](NCc1cc(Br)cc2[nH]c(=O)c(=O)[nH]c12)P(=O)(O)O,-1.62
11,c1ccc(-c2ncc(CN3CCN(c4ncccn4)CC3)[nH]2)cc1,3.76
12,CN1CCN(Cc2ccc(Nc3ncc(Cl)c(Nc4ccccc4S(=O)(=O)N(C)C)n3)cc2)CC1,1.65
13,COC(=O)c1ccc2c(c1)nc(NC(=O)c1ccccc1)n2CCCc1ccccc1,-2.38
14,O=S(=O)(F)Cc1ccccc1,-2.82
15,Oc1ncc(F)cn1,-8.73
16,c1ccc(NCc2ccc(CNc3ccccn3)cc2)nc1,2.9
17,COc1ccc(CN2C(=O)C(=O)c3cc(OC(F)(F)F)ccc32)cc1,1.71
18,Cc1ccccc1OCC(O)CNCCOc1ccc(C(N)=O)cc1 (centres unmarked),8.71
19,O=C(O)c1cc2occc2[nH]1,-4.85
20,Cc1nnc(C(=O)NC(C)(C)c2nc(C(=O)NCc3ccc(F)cc3)c(O)c(=O)n2C)o1,-6.05
21,OCCNCCCOc1cccc(Cl)c1Cl,55.4

row,Structure (SMILES),result_ITMP [%]
1,O=C(Nc1ccc(Cl)cc1)Nc1ccc(Cl)c(Cl)c1,-9.98
2,CN[C@@H](C)C(=O)N[C@H](C(=O)N1CCC[C@H]1c1nc(C(=O)c2ccc(F)cc2)cs1)C1CCCCC1,5.58
3,C=Cc1cc(O)cc2nc(-c3ccc(O)c(F)c3)oc12,-1.45
4,O=C1c2c(O)cccc2Cc2cccc(O)c21,-3.33
5,CN1C(=O)C(N2CCCCC2)S/C1=C\C(=O)O (centres unmarked),-8.42
6,CN1c2cc3c(cc2N=C(c2ccc(C(=O)O)cc2)c2ccccc21)C(C)(C)CCC3(C)C,-10.3
7,CO[C@H]1C[C@H](O[C@H]2[C@H](C)O[C@@H](O[C@@H]3/C(C)=C/C[C@@H]4C[C@@H](C[C@]5(C=C[C@H](C)[C@@H](C6CCCCC6)O5)O4)OC(=O)[C@@H]4C=C(C)[C@@H](O)[C@H]5OC/C(=C\C=C\[C@@H]3C)[C@]54O)C[C@@H]2OC)O[C@@H](C)[C@@H]1O,2.09
8,O=c1c(-c2ccc(O)cc2)coc2c(C3OC(CO)C(O)C(O)C3O)c(O)ccc12 (centres unmarked),-3.26
9,CC[C@H](C)[C@H](NC(=O)[C@H](CCC(=O)O)NC(=O)[C@H](CCC(=O)O)NC(=O)[C@H](Cc1ccccc1)NC(=O)[C@H](CC(=O)O)NC(=O)CNC(=O)[C@H](CC(N)=O)NC(=O)CNC(=O)CNC(=O)CNC(=O)CNC(=O)[C@@H]1CCCN1C(=O)[C@H](CCCNC(=N)N)NC(=O)[C@@H]1CCCN1C(=O)[C@H](N)Cc1ccccc1)C(=O)N1CCC[C@H]1C(=O)N[C@@H](CCC(=O)O)C(=O)N[C@@H](CCC(=O)O)C(=O)N[C@@H](Cc1ccc(O)cc1)C(=O)N[C@@H](CC(C)C)C(=O)O,0.65
10,O=C1C[C@@H](c2ccccc2)Oc2cc(O)cc(O)c21,-6.76
11,COc1cc(C(=O)OCCCN2CCCN(CCCOC(=O)c3cc(OC)c(OC)c(OC)c3)CC2)cc(OC)c1OC,58.7
12,COc1ccc(-c2ccc3c(N4CCOC[C@@H]4C)nc(N4CCOC[C@@H]4C)nc3n2)cc1CO,4.71
13,C[C@H](Nc1cc2c(-c3ccc4c(c3)OCO4)noc2cn1)c1ccccc1,5.45
14,CCC1(c2cnc[nH]2)Cc2ccccc2C1,-0.97
15,Cc1cc2ncc(C(=O)NCC(C)(C)NCC(=O)N3CCC[C@H]3C#N)cn2n1,-0.2
16,O=C(O)c1ccc(SSc2ccc(C(=O)O)cn2)nc1,3.39
17,O/N=C/c1ccc(-c2ccc(O)c(F)c2)c(Cl)c1O,-1.03
18,CC[N+](C)(CC)CCOC(=O)C(O)(c1ccccc1)C1CCCCC1 (centres unmarked),1.26
19,CCCOC(=O)c1ccccc1,-4.22
20,CCOC(=O)c1cc(C#N)c(N2CCC(C(=O)NS(=O)(=O)Cc3ccccc3)CC2)nc1C,0.54
21,CN1C2C=C(c3sccc3Br)CC1CC2 (centres unmarked),6.82

row,Structure (SMILES),result_ITMP [%]
1,COc1cc(N2CCOCC2)ccc1Nc1ncc(Cl)c(Nc2ccccc2NS(C)(=O)=O)n1,51.4
2,COc1ccc([C@@H]2CC(=O)c3c(O)cc(O)cc3O2)cc1O,-4.36
3,N=C1NC(=O)/C(=C/c2ccc(O)cc2)S1,-1.38
4,CC[C@H](C)[C@@H]1NC(=O)[C@H](Cc2ccc(OC)cc2)NC(=O)CCCSC[C@@H](C(=O)N2CCC[C@H]2C(=O)N[C@@H](CC(C)C)C(=O)NCC(N)=O)NC(=O)[C@H](CC(N)=O)NC(=O)[C@H](CCC(N)=O)NC1=O (Y(Me)IQNCPLG-NH2; linker N-5 via X2),-0.16
5,NC(=O)c1ccc(N(C(N)=O)c2c(F)cccc2F)nc1-c1ccc(F)cc1F,-4.92
6,CN1C2CC(O)[C@H]1C[C@@H](OC(=O)[C@H](CO)c1ccccc1)C2 (mixture of isomers),-3.11
7,C[N+]1(C)CCC(OC(=O)C(c2ccccc2)c2ccccc2)CC1,-5.87
8,CCOC(=O)c1ccccc1OC(N)=O,-2.6
9,Oc1cc(O)c2c(c1)O[C@H](c1ccc(O)c(O)c1)[C@@H](O)C2,-3.72
10,CC(=O)Oc1ccccc1C(=O)Nc1ncc([N+](=O)[O-])s1,-2.98
11,Oc1ccccc1,2.3
12,CCN(CC)CCOC(=O)C1(C2CCCCC2)CCCCC1,7.59
13,CCCc1cc(C)[nH]c(=O)c1CNC(=O)c1cc(-c2ccc(N3CCN(C(C)C)CC3)nc2)cc2c1cnn2C(C)C,1.19
14,CCOC(=O)c1ccccc1OC(=O)CCCCCCCC(=O)Oc1ccccc1C(=O)OCC,0.16
15,CC1(C)OC(=O)C(OCC2CC2)=C1c1ccc(S(C)(=O)=O)cc1,3.73
16,c1ccc(CC2=NCCN2)cc1,-4.29
17,CC(C)(Oc1ccc(CCNC(=O)c2ccc(Cl)cc2)cc1)C(=O)O,-3.73
18,OCCN1CCN(CCCN2c3ccccc3Sc3ccc(C(F)(F)F)cc32)CC1,60.4
19,N#Cc1c(N2C[C@@H]3NCCO[C@H]3C2)c(F)cc2c(=O)c(C(=O)O)cn(C3CC3)c12,-1.12
20,Clc1ccc2c(c1)C(N1CCNCC1)=Nc1ccccc1O2,70
21,CCc1nn(CCO)c(CC)c1Oc1cc(C#N)cc(C#N)c1,0.59

row,Structure (SMILES),result_ITMP [%]
1,O=C(O)CCCc1c[nH]c2ccccc12,-1.55
2,O=C1c2ccccc2C(=O)C1c1ccccc1,-0.55
3,O=C(Cn1ccnc1[N+](=O)[O-])NCc1ccccc1,0.3
4,Cc1cc(SCc2sc(-c3ccc(C(F)(F)F)c(F)c3)nc2C)ccc1OCC(=O)O,-1.52
5,C#C[C@]1(O)CCC2C3CCC4=CC(=O)CC[C@@H]4C3CC[C@@]21CC (some centres unmarked),-1.88
6,O=C(O)CCc1nc(-c2ccccc2)c(-c2ccccc2)o1,-0.9
7,Cc1ncc([N+](=O)[O-])n1CC(O)CN1CCOCC1 (centres unmarked),0.25
8,Cc1[nH]c2ccc(Cl)cc2c1C1=CCNCC1,96.8
9,O=C(O)CCc1c(C(=O)O)[nH]c2cc(Cl)cc(Cl)c12,-0.99
10,CC(C(=O)O)c1ccc(CC2CCCC2=O)cc1 (centres unmarked),0.43
11,CCCCCCCC/C=C\CCCCCCCC(=O)OC(CO)CO,-2.87
12,C=C1[C@@H](C)[C@H]2[C@H](Cc3ccccc3)NC(=O)[C@]23OC(=O)/C=C/[C@H](O)CCC[C@@H](C)C/C=C/[C@H]3[C@@H]1O,28.3
13,CC[C@H]1OC(=O)[C@H](C)[C@@H](O[C@H]2C[C@@](C)(OC)[C@@H](O)[C@H](C)O2)[C@H](C)[C@@H](O[C@@H]2O[C@H](C)C[C@H](N(C)C)[C@H]2O)[C@](C)(O)C[C@@H](C)C(=O)[C@H](C)[C@@H](O)[C@]1(C)O,-1.1
14,Cc1cc2nc3c(=O)[nH]c(=O)nc-3n(C[C@@H](O)[C@@H](O)[C@@H](O)COP(=O)([O-])O)c2cc1C,1.6
15,CC(=O)c1ccc2c(c1)C(=O)C1(CC1)O2,0.63
16,COc1ccc(Cl)cc1C(=O)NCCc1ccc(C(=O)O)cc1,-4.02
17,COc1cccc(-c2c(C)n(Cc3c(F)cccc3C(F)(F)F)c(=O)n(C[C@H](NCCCC(=O)O)c3ccccc3)c2=O)c1F,-5.96
18,Cc1c(Cl)cccc1Nc1ccccc1C(=O)O,-2.87
19,COc1cccc(/C=N/CC/N=C/c2cccc(OC)c2[O-])c1[O-].[Mn+3],-5.92
20,CC(C)C[C@@H](N)C(=O)N[C@H]1C(=O)N[C@@H](CC(N)=O)C(=O)N[C@H]2C(=O)N[C@H]3C(=O)N[C@H](C(=O)N[C@H](C(=O)O)c4cc(O)cc(O)c4-c4cc3ccc4O)[C@H](O)c3ccc(c(Cl)c3)Oc3cc2cc(c3O[C@@H]2O[C@H](CO)[C@@H](O)[C@H](O)[C@H]2O[C@H]2C[C@](C)(N)[C@H](O)[C@H](C)O2)Oc2ccc(cc2Cl)[C@H]1O,-9.92
